# Among all 310,000 compounds or so, about 14,000 (4.5%) showed an effect of 50% or more. Effects have a minus sign here. The list shows a part of the results.
# Biological target: human ether-à-go-go-related gene (hERG) potassium channel (human, UniProt Q12809)
# Test: primary screen, population patch clamp on CHO cells stably expressing hERG
# 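Note: peak tail current of the secondary pulse compared with the same well before compound.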
# human ether-à-go-go-related gene (hERG) potassium channel, sequence (Q12809 whole entry, looked up): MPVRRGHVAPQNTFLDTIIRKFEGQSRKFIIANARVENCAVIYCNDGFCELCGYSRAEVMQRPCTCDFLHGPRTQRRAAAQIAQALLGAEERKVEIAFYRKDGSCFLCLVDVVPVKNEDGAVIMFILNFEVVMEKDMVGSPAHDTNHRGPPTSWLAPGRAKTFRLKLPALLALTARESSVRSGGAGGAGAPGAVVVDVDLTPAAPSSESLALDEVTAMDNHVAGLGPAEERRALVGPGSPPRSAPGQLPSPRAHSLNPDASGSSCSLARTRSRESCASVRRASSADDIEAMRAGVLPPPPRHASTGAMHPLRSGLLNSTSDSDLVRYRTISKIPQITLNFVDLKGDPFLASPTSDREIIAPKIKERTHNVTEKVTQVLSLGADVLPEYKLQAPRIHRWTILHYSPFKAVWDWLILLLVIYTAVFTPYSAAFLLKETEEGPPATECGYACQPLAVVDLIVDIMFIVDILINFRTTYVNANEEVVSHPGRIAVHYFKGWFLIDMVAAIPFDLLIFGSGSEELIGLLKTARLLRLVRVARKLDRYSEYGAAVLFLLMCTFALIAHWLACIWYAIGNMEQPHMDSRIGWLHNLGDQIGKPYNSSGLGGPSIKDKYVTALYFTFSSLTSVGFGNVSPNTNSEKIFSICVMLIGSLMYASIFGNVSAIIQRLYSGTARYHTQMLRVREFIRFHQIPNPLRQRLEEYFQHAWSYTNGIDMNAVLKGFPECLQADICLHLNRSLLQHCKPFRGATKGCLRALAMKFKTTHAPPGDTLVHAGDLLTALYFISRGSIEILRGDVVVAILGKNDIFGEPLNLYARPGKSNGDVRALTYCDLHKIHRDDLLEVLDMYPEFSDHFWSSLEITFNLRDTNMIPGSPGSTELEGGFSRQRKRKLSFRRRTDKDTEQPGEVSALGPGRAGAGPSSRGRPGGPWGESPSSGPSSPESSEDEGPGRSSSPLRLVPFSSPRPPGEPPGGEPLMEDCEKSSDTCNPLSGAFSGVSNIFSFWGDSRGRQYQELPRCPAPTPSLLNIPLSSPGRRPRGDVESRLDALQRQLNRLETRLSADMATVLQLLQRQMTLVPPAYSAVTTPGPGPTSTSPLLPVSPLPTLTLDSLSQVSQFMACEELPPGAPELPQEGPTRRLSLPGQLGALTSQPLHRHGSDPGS
row,SMILES,"hERG current change (%, negative = inhibition) at 10uM [%]"
1,Cc1cc(=O)[nH]c(SCC(=O)Nc2cccc3ccccc23)c1C#N,-5.68
2,O=C(c1ccc(-c2ccccc2)cc1)N1CCN(c2ncccn2)CC1,-5.92
3,O=C(CSc1nnnn1-c1cccc(C(=O)O)c1)NC(c1ccccc1)c1ccccc1,22.7
4,Cc1noc(COc2ccccc2OCC(N)=O)n1,8.89
5,C=CCNc1nc(Nc2ccc([N+](=O)[O-])cc2)nc(OC)n1,-14.1
6,CCc1nn(CC(=O)N2CCC(C(N)=O)CC2)c(=O)c2cc3occc3n12,9.07
7,COc1ccc([C@H]2CC(=O)C=C(c3ccccc3Oc3ccccc3)C2)cc1,4.74
8,CS(=O)(=O)O.Cn1cc(C(F)(F)F)nc1-c1ccc(OCC(O)CNCCOc2ccc(O)c(C(N)=O)c2)cc1 (stereo not shown),-7.51
9,COc1ccc(CN(C)C(=O)c2ccc(Oc3ccccc3)cc2)cc1F,-15.6
10,CCOC(=O)c1c(NC(=O)/C=C/C(=O)O)sc(C)c1-c1ccc(C)c(C)c1,-13.3
11,C/C(=C\c1cccs1)C(=O)c1c(C)cc(C)[nH]c1=O,-7.64
12,Cc1cccc(CN2C(=O)c3ccccc3Sc3ccc(C(=O)NCCN4CCOCC4)cc32)c1,-38
13,Cc1ccc(CNC(=O)Cn2ccc3cc(S(=O)(=O)N4CCCC4)ccc32)o1,0.583
14,CCOc1cc(C(=O)NCc2ccc(C)cc2)ccc1OCC(=O)N1CCOCC1,4.68
15,CCOc1ccc(N2CC(C(=O)N3CCCCC3)CC2=O)cc1 (stereo not shown),18.6
16,c1ccc(-c2ccc(-c3nc(-c4ccncc4)no3)cc2)cc1,3.02
17,CCOCCCNC(=O)c1ccc(OC2CCN(C(C)=O)CC2)c(OC)c1,14.9
18,O=C1Nc2c(c(=O)[nH]c(=O)n2-c2ccccc2)C(C(F)(F)F)(C(F)(F)F)N1,-1.37
19,O=C(CSc1nnc(-c2ccccc2O)n1Cc1ccccc1)NNC(=O)c1ccccc1O,0.52
20,CCCN=C1NC(=O)C(CC(=O)NCCc2ccccc2)S1 (stereo not shown),-0.483
21,Cc1cccc(NC(=O)N(Cc2nc3ccccc3c(=O)[nH]2)C2CCCC2)c1,3.1
22,CC1(C)CC(=O)C(CC2=C(N)CC(C)(C)CC2=O)=C(N)C1,4.6
23,COC(=O)c1cc(=O)n(Cc2ccc(F)cc2)c(=NCc2ccc(F)cc2)s1,14.6
24,Cc1ccc(N(CC(=O)NC2CCCCC2)C(=O)CNC(=O)c2ccco2)cc1C,-10.8
25,CCNC(=O)N1CCC(n2nccc2NC(=O)CCCc2ccccc2)CC1,16.5
26,O=C(Nc1cccc(F)c1)c1sc(Cl)nc1-c1ccccc1,-2.44
27,COC(=O)c1noc(C)c1-c1ccnn1C(=O)c1ccc(C)cc1,21.3
28,COc1ccc(N(CC(=O)Nc2c(C)n(C)n(-c3ccccc3)c2=O)S(=O)(=O)c2ccc(C)cc2)cc1,-29.4

row,SMILES,"hERG current change (%, negative = inhibition) at 10uM [%]"
1,Cc1ccc2c(C(=O)CN3CCCCC3)c(C)[nH]c2c1,-11.1
2,CCOC(=O)N1CCC(N2Cc3cccc(C(=O)NCc4ccc(C)cc4)c3C2=O)CC1,-42.6
3,COc1cc(/C=N/NS(=O)(=O)c2ccc3ccccc3c2)ccc1OCCN1CCOCC1,-39.5
4,COc1ccc(C2=CC(=O)N(Nc3ccccc3)C2=O)cc1,24.6
5,Cc1c(NC(=O)c2ccc3c(c2)C(=O)N(Cc2ccco2)C3=O)cccc1C(=O)O,23.2
6,COC(=O)c1ccc(CSc2nnc(CNC(=O)COc3ccc(Cl)cc3)o2)o1,-38.1
7,CC(Oc1ccc2c(-c3ccccc3)cc(=O)oc2c1)C(=O)N[C@H](Cc1c[nH]c2ccccc12)C(=O)O (stereo partly shown),7.48
8,N#Cc1ccccc1/C=C/C(=O)N1CCOCC1,20.2
9,CCOc1ccc(NC(=O)N2CC(C)OC(C)C2)cc1 (stereo not shown),9.92
10,Cc1ccccc1C(=O)NC(=S)Nc1ncccn1,-5.71
11,CC(NC(=O)c1ccc2ccccc2n1)c1ccc(S(N)(=O)=O)cc1 (stereo not shown),24.9
12,CC12CC3(C)CC(C)(C1)CC(C(=O)NCc1cccnc1)(C2)C3,-11.9
13,O=C(CSc1ncn[nH]1)N/N=C/c1ccc(F)cc1,16.4
14,CCN(CC)c1nc(SCCOC(=O)Nc2ccccc2)nc(N(CC)CC)n1,7.09
15,CC(=O)NC(CCS(C)(=O)=O)C(=O)Nc1cccc(C)c1C (stereo not shown),-3.36
16,O=c1c(Cc2ccccc2)c(O)ccn1C1CCCCCCC1,10.1
17,O=C(OCc1cc2ccccc2[nH]c1=O)c1cccs1,17.7
18,Cc1ccc(CSc2nnc(-c3ccncc3)o2)c(C)c1,11.2
19,COc1cn(-c2ccccc2)nc1C(=O)Nc1ccc(C)cc1,-6.01
20,CC(=O)N1N=C(c2ccc(Cl)cc2)CC1c1ccco1 (stereo not shown),7.11
21,Oc1c(N=Nc2ccc(F)cc2)ccc2ccccc12,21.6
22,CCOc1ccc(Oc2ccccc2NC(=O)CSCC(=O)Nc2cc(C)on2)cc1,18.7
23,O=C(Nc1cccc(-c2nc3ccccc3s2)c1)c1cccs1,-53.1
24,Nc1nc(NCCN2CCOCC2)nc(NCc2ccccc2)c1[N+](=O)[O-],-17.6
25,COCCCNC(=O)CCC(=O)Nc1ccc2nc(N3CCOCC3)cc(C)c2c1,4
26,CC(=O)Nc1ccc(NC(=O)COC(=O)CCc2nc3ccccc3s2)cc1,8.76
27,COc1cc(C(C)=O)ccc1OC(=O)N(C)c1ccccc1,-3.34

# Source: publication PMC4336329 (PLoS ONE, 2015)
